Laboratory results from ChEMBL document CHEMBL5308541, “MAIP: An Open-Source Tool to Enrich High-Throughput Screening Output and Identify Novel, Druglike Molecules with Antimalarial Activity” (ACS Med Chem Lett, 2023).
About 540 (0.36%) of roughly 150,000 compounds showed an effect of 50% or more. Some of the results follow.

What follows are compounds tested on Plasmodium falciparum (assay: Primary screen in NF54 nanoGlo assay, in single point, at 2uM, 72h; a lower Z score goes with more inhibition). Settings: timepoint 72 hour.
Format: functional, Erythrocyte
For O=C1CCCc2cc(C(=O)N3CC(O)C(Cc4ccccc4)C3)ccc21 (centres undefined), the “% Inhibition” value was -6% and the Z score was 1.
With CN(C(=O)c1cc2occc2[nH]1)C1CC2CCC(C1)N2C(=O)OC(C)(C)C (centres undefined) the “% Inhibition” value was -5% and the Z score was 0.91.
O=C(c1ccc2ncsc2c1)N1CC(c2nc(-c3ccncc3)no2)C1 was tested, and the “% Inhibition” value was -14% and the Z score was 2.78.
Cc1c(CN(C)C(=O)NCCN2CCC(CO)CC2)[nH]c2ccccc12 was tested, and the “% Inhibition” value was -7% and the Z score was 1.36.
With CN(C)C[C@H](O)CN1CCN(Cc2ccc(-c3ccccc3C#N)o2)CC1 the “% Inhibition” value was 2% and the Z score was -0.46.
COc1c(F)c(F)cc(C(=O)N2CCC(N3CC(=O)N(C)C3=O)CC2)c1F was tested, and the “% Inhibition” value was 2% and the Z score was -0.31.
In the case of COc1ccccc1Nc1nnc(-c2ccc(OC(C)C)c(OC)c2)o1, the “% Inhibition” value is reported as -7% and the Z score is reported as 1.19.
c1ccc(Oc2cccc(CNCCc3nc4ccccc4[nH]3)c2)cc1 was tested, and the “% Inhibition” value was -7% and the Z score was 1.19.
In the case of O=C(Cc1csc(-c2cccc(F)c2)n1)NC[C@H](c1ccccc1)c1c[nH]c2ccccc12, the “% Inhibition” value is reported as -6% and the Z score is reported as 1.11.
For c1cc(NC2CCN(c3cnccn3)CC2)cc(-c2ccn[nH]2)c1, the “% Inhibition” value was 6% and the Z score was -1.
CN1CCN(C[C@H]2CCCN(C(=O)CCCN3CCCC3)C2)CC1 was tested, and the “% Inhibition” value was 2% and the Z score was -0.38.
In the case of O=C(c1ccncc1)N1CCC(NCCN2CCCC[C@@H]2CO)CC1, the “% Inhibition” value is reported as -16% and the Z score is reported as 2.77.
O=C1NC2(CCN(Cc3ccc4[nH]ccc4c3)CC2)C[C@@H]1c1ccccc1 was tested, and the “% Inhibition” value was 7% and the Z score was -1.28.
For O=c1nc2c3ccccc3nc(Nc3ccccc3)n2nc1-c1ccc(F)cc1, the “% Inhibition” value was -10% and the Z score was 1.59.
With CCCN(CC)c1ccc(C(=O)NCc2cc[nH]n2)cc1 the “% Inhibition” value was -16% and the Z score was 2.75.
CC(O)c1cc(NC[C@H](O)c2ccc(Cl)c(Cl)c2)ccc1F (some centres undefined) was tested, and the “% Inhibition” value was -2% and the Z score was 0.4.
With Cc1cc(Cl)ccc1OCCN1CCN(Cc2cc(-c3ccncc3)no2)CC1 the “% Inhibition” value was -3% and the Z score was 0.62.
In the case of Cc1nn(CC(N)=O)c(C)c1-c1cc(NC2CCCC2)nc2[nH]ccc12, the “% Inhibition” value is reported as 4% and the Z score is reported as -0.77.
For COC(=O)N[C@H](C(=O)Nc1cc(CCc2ccccc2C)n[nH]1)C(C)C, the “% Inhibition” value was -4% and the Z score was 0.65.
In the case of COc1cc(-c2cc(C(=O)N3CCC(N4CC[C@H](OC)C4)CC3)n[nH]2)cc(OC)c1OC, the “% Inhibition” value is reported as -2% and the Z score is reported as 0.28.
OCC1CCN(Cc2ccccc2NCc2noc(-c3ccsc3)n2)CC1 was tested, and the “% Inhibition” value was -10% and the Z score was 1.77.
Cc1ccc2[nH]c(CCNC3CCN(C)CC3)nc2c1C was tested, and the “% Inhibition” value was 7% and the Z score was -1.19.
In the case of CC(C)Cn1cncc1CNc1ncnc2[nH]ccc12, the “% Inhibition” value is reported as 0% and the Z score is reported as -0.01.
COc1cc2c(NCCCN3CC(C)OC(C)C3)ncnc2cc1F (centres undefined) was tested, and the “% Inhibition” value was 2% and the Z score was -0.27.
Cc1ccc2cccc(C(=O)N[C@H]3CCN(C4CCN(C)CC4)C3)c2n1 was tested, and the “% Inhibition” value was -13% and the Z score was 2.27.
COCC12CCC(N3CCOCC3)CC1CCN(Cc1ccc3[nH]ccc3c1)C2 (centres undefined) was tested, and the “% Inhibition” value was 7% and the Z score was -1.16.
FC(F)(F)CN1CC[C@H](NCc2cccc3[nH]ccc23)C1 was tested, and the “% Inhibition” value was 0% and the Z score was 0.08.
In the case of O=S1(=O)CCC(O)(CN2CCC[C@H](CN3CCCCCC3)C2)CC1, the “% Inhibition” value is reported as -7% and the Z score is reported as 1.3.
In the case of COc1cccc(C(C(=O)O)N2CCC(O)(Cc3ccc(F)cc3)C2)c1 (centres undefined), the “% Inhibition” value is reported as 6% and the Z score is reported as -0.89.
In the case of Clc1cnc(NCCN2CCN(c3ccccc3)CC2)nc1, the “% Inhibition” value is reported as 3% and the Z score is reported as -0.49.
For CCN1CCN(C[C@@H](C)CNCc2cc(-c3ccccc3)ccc2OC)CC1, the “% Inhibition” value was 19% and the Z score was -4.12.
OC1(C2CCN(C3CC4(CCCCC4)C3)CC2)CC1 was tested, and the “% Inhibition” value was 2% and the Z score was -0.23.
In the case of c1ccc(CN2CC3CCC(C2)N(c2ncnc4cc[nH]c24)C3)cc1 (centres undefined), the “% Inhibition” value is reported as 11% and the Z score is reported as -1.65.
For Fc1ccc(N2CC[C@H](NCCOc3cccc4cccnc34)C2)cc1, the “% Inhibition” value was 0% and the Z score was -0.07.
With CCN(C[C@H](O)c1cccc(O)c1)C(=O)c1ccccc1-c1nn[nH]n1 the “% Inhibition” value was -3% and the Z score was 0.66.
CC(=O)NC1C(Oc2cccc(Nc3nc(-c4ccc(C)cc4)nc4ccccc34)c2)OC(CO)C(O)C1O (centres undefined) was tested, and the “% Inhibition” value was 2% and the Z score was -0.34.
COc1cc(CNC(=O)NCc2nc(C)cs2)c2ccccc2n1 was tested, and the “% Inhibition” value was -1% and the Z score was 0.18.
In the case of CC(C)(C)OC(=O)NCCN1C(=O)c2ccccc2N[C@@H]1c1ccc(OCCN2CCCC2)cc1, the “% Inhibition” value is reported as -9% and the Z score is reported as 1.35.
Cc1ncnc(OCC2CCN(S(=O)(=O)c3ccccc3Cl)CC2)c1C was tested, and the “% Inhibition” value was -1% and the Z score was 0.22.
With CCN1CCN(Cc2cc(C)cc(CNCc3nc4cc(C)ccc4[nH]3)c2C)CC1 the “% Inhibition” value was 4% and the Z score was -0.85.
O=C(Cc1c[nH]c2cc(F)ccc12)N[C@H]1CCCN(Cc2ccc(F)cc2F)C1=O was tested, and the “% Inhibition” value was 0% and the Z score was 0.01.
For Cn1cc(-c2cncc(CNC(=O)c3cc(-c4ccc(F)cc4)n[nH]3)c2)cn1, the “% Inhibition” value was -4% and the Z score was 0.77.
For Clc1cccc(N2CC[C@H](CNC3CCN(Cc4ccco4)CC3)C2)c1, the “% Inhibition” value was 31% and the Z score was -5.5.
For CCCc1nc(N2CC(O)C(Cc3ccnc4ccccc34)C2)no1 (centres undefined), the “% Inhibition” value was 1% and the Z score was -0.16.
COc1cc([C@H]2Nc3cc(Cl)ccc3-c3ccnn32)ccc1OCc1cccc(C(F)(F)F)c1 was tested, and the “% Inhibition” value was -16% and the Z score was 2.4.
In the case of COCC1C(C(=O)NCCN2CCC(N3CCCCC3)CC2)CCCN1C (centres undefined), the “% Inhibition” value is reported as -5% and the Z score is reported as 0.82.
COc1cc(CN2C[C@H]3CNC[C@H]3C2)ccc1OCCN1CCCC1 was tested, and the “% Inhibition” value was -5% and the Z score was 0.82.
For COc1ccc(-c2onc(C)c2C)cc1S(=O)(=O)NCCCN1CCC(N2CCCCC2)CC1, the “% Inhibition” value was 15% and the Z score was -2.57.
With Cc1cc(CC(C)C)nc(N2CC[C@H](NC3CCNCC3)C2)n1 the “% Inhibition” value was -10% and the Z score was 1.77.
For O=C(Nc1nc(C(F)(F)F)c[nH]1)c1cc(-c2ccccc2)[nH]n1, the “% Inhibition” value was 4% and the Z score was -0.88.
CN1CCN([C@H]2CCN(Cc3cc(O)c4ccccc4n3)C2)CC1 was tested, and the “% Inhibition” value was -3% and the Z score was 0.59.
In the case of C=C(C)CNc1nc(N)nc2c1CCN(C(=O)CN1CCNCC1)CC2, the “% Inhibition” value is reported as 21% and the Z score is reported as -3.65.
